Results taken from article PMC6345584.
These are yes or no findings as the source states them, for the method shown. Binding seen in cells or lysates may run through a third protein. Some entries that bind do so weakly or less than the wild type. For some assays here: Sequences can lack the tags named with a protein.

Protein sequences, listed by entry. Tags and fused reporters are not part of them.
UniProt Q96AC1: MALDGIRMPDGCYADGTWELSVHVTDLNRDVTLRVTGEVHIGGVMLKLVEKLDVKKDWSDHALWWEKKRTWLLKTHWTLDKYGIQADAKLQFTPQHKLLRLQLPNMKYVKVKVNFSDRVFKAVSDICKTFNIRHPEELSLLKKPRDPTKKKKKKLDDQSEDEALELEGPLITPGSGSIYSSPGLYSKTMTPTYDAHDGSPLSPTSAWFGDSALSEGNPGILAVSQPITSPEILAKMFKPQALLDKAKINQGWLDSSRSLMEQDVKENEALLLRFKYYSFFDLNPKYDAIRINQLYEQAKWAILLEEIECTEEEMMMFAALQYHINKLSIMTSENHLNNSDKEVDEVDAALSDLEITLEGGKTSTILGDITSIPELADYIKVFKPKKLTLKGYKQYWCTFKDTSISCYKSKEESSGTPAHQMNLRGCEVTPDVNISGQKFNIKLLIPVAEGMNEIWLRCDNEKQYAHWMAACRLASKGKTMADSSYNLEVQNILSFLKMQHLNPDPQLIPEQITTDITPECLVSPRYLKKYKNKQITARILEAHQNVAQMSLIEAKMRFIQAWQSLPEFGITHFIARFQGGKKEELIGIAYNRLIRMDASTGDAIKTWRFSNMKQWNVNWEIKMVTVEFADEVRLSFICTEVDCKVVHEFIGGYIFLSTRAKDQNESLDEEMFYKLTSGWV

T1: Full-length GST-kindlin-1 (UniProt Q9BQL6)
T1 sequence: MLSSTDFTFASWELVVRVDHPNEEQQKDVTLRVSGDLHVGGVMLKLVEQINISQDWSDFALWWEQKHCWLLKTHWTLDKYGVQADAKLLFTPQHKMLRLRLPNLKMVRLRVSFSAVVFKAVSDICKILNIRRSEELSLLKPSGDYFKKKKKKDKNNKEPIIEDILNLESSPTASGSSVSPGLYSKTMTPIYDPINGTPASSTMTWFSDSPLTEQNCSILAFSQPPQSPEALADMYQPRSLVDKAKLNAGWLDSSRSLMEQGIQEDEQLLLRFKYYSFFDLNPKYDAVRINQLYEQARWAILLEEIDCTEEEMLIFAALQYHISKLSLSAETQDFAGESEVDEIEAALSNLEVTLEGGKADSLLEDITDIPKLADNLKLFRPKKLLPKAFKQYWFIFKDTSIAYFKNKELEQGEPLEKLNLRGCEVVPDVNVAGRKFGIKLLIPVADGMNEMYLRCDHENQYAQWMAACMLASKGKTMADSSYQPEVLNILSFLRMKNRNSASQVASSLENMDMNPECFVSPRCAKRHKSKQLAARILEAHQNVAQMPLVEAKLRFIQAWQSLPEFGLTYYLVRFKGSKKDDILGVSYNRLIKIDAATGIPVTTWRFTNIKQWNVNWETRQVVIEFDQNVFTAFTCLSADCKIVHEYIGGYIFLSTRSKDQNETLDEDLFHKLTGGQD


Assays:
[1] = biological target: epidermal growth factor receptor (endogenous, human keratinocytes) (human (endogenous in keratinocytes)) (UniProt P00533); assay: co-IP; IP of endogenous EGFR from KS cells re-expressing mCherry-kindlin-1, starved or after EGF stimulation (10 ng/ml) over time
[2] = biological target: T1, Full-length GST-kindlin-1; assay: pull-down; GST-kindlin-1 full length or domains on glutathione Sepharose beads, endogenous EGFR from WT keratinocyte lysate, immunoblot for EGFR; only the target purified
[3] = biological target: EGFR-GFP (UniProt P00533); assay: FRET or BRET; FRET by fluorescence lifetime imaging microscopy in fixed KS keratinocytes expressing EGFR-GFP (donor) and mCherry-kindlin-1 (acceptor), with or without EGF stimulation

binding [1]	binding [2]	binding [3]	Molecule
no binding	–	–	kindlin-2 (endogenous, KS keratinocytes) (from UniProt Q96AC1 1-680)
–	binds	–	epidermal growth factor receptor (endogenous, human keratinocytes) (from UniProt P00533 25-1210)
binds	–	binds	mCherry-kindlin-1 (protein, UniProt Q9BQL6 1-677) MLSSTDFTFASWELVVRVDHPNEEQQKDVTLRVSGDLHVGGVMLKLVEQINISQDWSDFALWWEQKHCWLLKTHWTLDKYGVQADAKLLFTPQHKMLRLRLPNLKMVRLRVSFSAVVFKAVSDICKILNIRRSEELSLLKPSGDYFKKKKKKDKNNKEPIIEDILNLESSPTASGSSVSPGLYSKTMTPIYDPINGTPASSTMTWFSDSPLTEQNCSILAFSQPPQSPEALADMYQPRSLVDKAKLNAGWLDSSRSLMEQGIQEDEQLLLRFKYYSFFDLNPKYDAVRINQLYEQARWAILLEEIDCTEEEMLIFAALQYHISKLSLSAETQDFAGESEVDEIEAALSNLEVTLEGGKADSLLEDITDIPKLADNLKLFRPKKLLPKAFKQYWFIFKDTSIAYFKNKELEQGEPLEKLNLRGCEVVPDVNVAGRKFGIKLLIPVADGMNEMYLRCDHENQYAQWMAACMLASKGKTMADSSYQPEVLNILSFLRMKNRNSASQVASSLENMDMNPECFVSPRCAKRHKSKQLAARILEAHQNVAQMPLVEAKLRFIQAWQSLPEFGLTYYLVRFKGSKKDDILGVSYNRLIKIDAATGIPVTTWRFTNIKQWNVNWETRQVVIEFDQNVFTAFTCLSADCKIVHEYIGGYIFLSTRSKDQNETLDEDLFHKLTGGQD
–	–	binds	mCherry-W612Akindlin-1 (protein, UniProt Q9BQL6 1-677) MLSSTDFTFASWELVVRVDHPNEEQQKDVTLRVSGDLHVGGVMLKLVEQINISQDWSDFALWWEQKHCWLLKTHWTLDKYGVQADAKLLFTPQHKMLRLRLPNLKMVRLRVSFSAVVFKAVSDICKILNIRRSEELSLLKPSGDYFKKKKKKDKNNKEPIIEDILNLESSPTASGSSVSPGLYSKTMTPIYDPINGTPASSTMTWFSDSPLTEQNCSILAFSQPPQSPEALADMYQPRSLVDKAKLNAGWLDSSRSLMEQGIQEDEQLLLRFKYYSFFDLNPKYDAVRINQLYEQARWAILLEEIDCTEEEMLIFAALQYHISKLSLSAETQDFAGESEVDEIEAALSNLEVTLEGGKADSLLEDITDIPKLADNLKLFRPKKLLPKAFKQYWFIFKDTSIAYFKNKELEQGEPLEKLNLRGCEVVPDVNVAGRKFGIKLLIPVADGMNEMYLRCDHENQYAQWMAACMLASKGKTMADSSYQPEVLNILSFLRMKNRNSASQVASSLENMDMNPECFVSPRCAKRHKSKQLAARILEAHQNVAQMPLVEAKLRFIQAWQSLPEFGLTYYLVRFKGSKKDDILGVSYNRLIKIDAATGIPVTTWRFTNIKQANVNWETRQVVIEFDQNVFTAFTCLSADCKIVHEYIGGYIFLSTRSKDQNETLDEDLFHKLTGGQD
